Results: PubChem BioAssay AID504466 (National Center for Advancing Translational Sciences (NCATS), 2011)
Among all 330,000 compounds or so, about 4,200 (1.3%) were called active. Inconclusive means that the source gave no clear call. Such entries were picked first, then a sample of the others. The call rests on the fitted dose curve; in most records, active means well fitted activation curve with a large enough effect; inconclusive means small, poorly fitted or top-dose-only effect; inactive means no such curve, though single readings can be large or run the other way. A potency beside an inconclusive call is a rough fit, not a confirmed value.

assay: qHTS screen for small molecules that induce genotoxicity in human embryonic kidney (HEK293T) cells expressing luciferase-tagged ELG1; details: HEK293T ELG1-luciferase reporter, luminescence, 16 h; series mostly up to 46 µM; further: nearly all actives have a fitted effect of over 60% in size
How it was run: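 ELG1-luciferase HEK293T cells, 2,000/well; compound pinned in; 16 hr, 37 °C, 5% CO2; ONE-Glo, 30 min RT; luminescence on CCD imager.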
Potency means the concentration at half of the fitted maximal effect; tags describe the fitted curve by direction and shape.

Row | Structure (SMILES) | Potency
1 | CCC(C)N(C(=O)CN1C(=O)NC2(CCc3ccccc32)C1=O)C1CCS(=O)(=O)C1 (centres undefined) | inactive
2 | O=C(CN1C(=O)COc2ccccc21)Nc1ccc2c(c1)OCCO2 | inactive
3 | O=C(Nc1ccc2c(c1)OCCO2)c1ccc(Cl)cc1Cl | inconclusive: 0.517 µM [activator, full curve, poor fit]
4 | C=CCNc1nc2c(c(=O)n(C)c(=O)n2C)n1CCCCCC | inconclusive: 32.6 µM [activator, partial curve, poor fit]
5 | COc1cc(Cl)ccc1OCc1cc(C(=O)N2C[C@H]3CC[C@H]2C3)no1 | active: 8.2 µM
6 | O=C(NCc1cccnc1)c1c[nH]c2cc3c(cc2c1=O)OCCO3 | inconclusive: 18.4 µM [activator, partial curve, poor fit]
7 | CN(C)C(=S)Nc1nc2ccccc2s1 | inconclusive: 23.1 µM [activator, single point]
8 | O=C(/C=C\Nc1ccc(Br)cc1)c1cccnc1 | active: 20.6 µM
9 | COc1ccc(-c2nnn(CC(=O)N(CC(=O)NC3CCCC3)c3ccccc3F)n2)cc1OC | inactive
10 | CN(C)/N=C/C=C1\CC/C(=C\c2ccc(Br)cc2)C1=O | inconclusive: 16.4 µM [activator, partial curve]
11 | CNc1nc(NCc2ccccc2)nc(N)c1[N+](=O)[O-] | active: 18.3 µM
12 | O=C(Nc1ccc2c(c1)CCC2)c1cc(S(=O)(=O)N2CCN(c3ccccc3)CC2)ccc1Cl | inactive
13 | OC[C@@H]1CC[C@@H](Cc2ccc(-c3ccccc3)cc2)O1 | inconclusive: 7.3 µM [activator, partial curve]
14 | Cc1cc2cc(CNC(=O)NC3CCCCC3)ccc2[nH]1 | inconclusive: 20.6 µM [activator, partial curve]
15 | Clc1ccc(N2CCN(/N=C/c3ccncc3)CC2)cc1 | inactive
16 | Cn1c(=O)c2c(ncn2CC(=O)N2CCN(c3ccccc3F)CC2)n(C)c1=O | inconclusive: 0.058 µM [activator, full curve, poor fit]
17 | CCC(=O)Nc1ccc2oc(-c3ccccc3Br)nc2c1 | inconclusive: 23.1 µM [activator, single point]
18 | CC(=O)c1c(C)[nH]c(C(=O)N2CCc3ccccc3C2)c1C | inconclusive: 25.9 µM [activator, partial curve, poor fit]
19 | Cc1ccc(SCCc2cc[n+](CC(=O)c3ccccc3)cc2)cc1 | inconclusive: 32.6 µM [activator, partial curve, poor fit]
20 | CC(C)(C)c1ccc(Cn2cnc(-c3ccc([N+](=O)[O-])cc3)c2)cc1 | inconclusive: 23.1 µM [activator, single point]
21 | CCSc1ccc(-c2ccc(C)cc2)nn1 | inconclusive: 0.82 µM [activator, full curve, poor fit]
22 | O=C1Nc2cc(C(=O)N3CCN(c4ccccn4)CC3)ccc2S/C1=C\c1ccccc1 | inactive
23 | O=C(COc1ccc(Cl)cc1Cl)NN=C1CCCCC1 | inactive
24 | CC1(C)OC(=O)C(=NNc2ccc(Cl)cc2)C(=O)O1 | inconclusive: 29.1 µM [activator, single point]
25 | O=c1c2ccccc2cnn1-c1ccc2ccccc2c1 | inconclusive: 1.26 µM [activator, partial curve, poor fit]

Row | Structure (SMILES) | Potency
26 | Cc1cc(C)c2c(n1)sc1c(N3CCN(C)CC3)ncnc12 | inconclusive: 20.6 µM [activator, partial curve, poor fit]
27 | CCOc1ccc2nc(SCC(=O)c3cccs3)sc2c1 | active: 14.6 µM
28 | COc1cc2ccc(=O)oc2c(O)c1OCC=C(C)C | inconclusive: 23.1 µM [activator, single point]
29 | O=S(=O)(Nn1cnnc1)c1ccc(F)cc1 | inactive
30 | CCOc1ccc2nc(N3CCC(C(=O)NCCCN4CCOCC4)CC3)sc2c1 | inconclusive: 25.9 µM [activator, single point]
31 | CN(C)c1ccc(C2NC(=O)c3ccccc3N2)cc1 (centres undefined) | inconclusive: 2.31 µM [activator, full curve, poor fit]
32 | CN1CCN(C(=S)NCCc2ccccc2)CC1 | inconclusive: 20.6 µM [activator, partial curve, poor fit]
33 | COc1ccc(/C=C(\NC(=O)c2ccccc2)C(=O)NCc2ccco2)cc1 | inconclusive: 29.1 µM [activator, single point]
34 | O=C(O)c1cc(N/N=C/c2c[nH]c3ccccc23)ccc1Cl | inconclusive: 16.4 µM [activator, partial curve]
35 | Cc1[nH]n(-c2ccccc2)c(=O)c1/C=N/NC(=O)c1ccccc1F | inconclusive: 20.6 µM [activator, single point]
36 | C=CCNC(=O)c1ccccc1Cl | inactive
37 | CCCOc1ccc2nc(NC(=O)OC)[nH]c2c1 | inconclusive: 29.1 µM [activator, partial curve, poor fit]
38 | NS(=O)(=O)c1cccc(NC(=O)COC(=O)Cc2ccc(Cl)cc2)c1 | inactive
39 | Fc1ccccc1C1CC(c2ccco2)=Nc2ccccc2S1 (centres undefined) | inconclusive: 16.4 µM [activator, partial curve, poor fit]
40 | CC1CCc2nc(/C(C#N)=C/c3cccnc3)sc2C1 (centres undefined) | active: 2.31 µM
41 | CC(C)c1nnc(NC(=O)c2ccc3ccccc3c2)s1 | inconclusive: 0.73 µM [activator, partial curve]
42 | O=C(N/N=C/c1ccc(OC(=O)c2ccccc2Cl)cc1)c1cc(O)cc(O)c1 | inactive
43 | CSc1nc(-c2cccs2)c(C#N)c(=O)[nH]1 | inactive
44 | Oc1ccccc1-c1nnc(COc2ccccc2)o1 | inconclusive: 11.6 µM [activator, partial curve, poor fit]
45 | Cc1ccccc1Oc1cccc(C(=O)/C(C#N)=C/N(C)C)c1 | inconclusive: 20.6 µM [activator, partial curve, poor fit]
46 | COc1ccc(C)cc1NC(=O)CNC(c1ccccc1)c1ccc(C)cc1 (centres undefined) | inactive
47 | COc1ccc(-c2nc3ccccc3s2)cc1 | active: 0.517 µM
48 | CCN(Cc1ccncc1)C(=O)c1cc(COc2ccc(OC)cc2Cl)on1 | inconclusive: 4.61 µM [activator, partial curve, poor fit]
49 | O=C(N/N=C/c1ccc2c(c1)OCO2)c1ccn(Cc2ccc(Cl)cc2)n1 | inconclusive: 10.3 µM [activator, partial curve, poor fit]
50 | CC1CCN(C(=O)CSc2nc3ccccc3s2)CC1 | active: 11.6 µM

Row | Structure (SMILES) | Potency
51 | Cc1cc(/C=C2/C(=O)NN(c3ccccc3)C2=O)c(C)n1-c1ccc(O)cc1 | inconclusive: 0.92 µM [activator, partial curve]
52 | C=CCNc1nc(-c2ccc(OC)cc2OC)cs1 | inconclusive: 9.2 µM [activator, partial curve]
53 | CC(=O)c1ccc(NC(=O)c2noc3c2CCCCC3)cc1 | active: 2.91 µM
54 | Cc1nc(N=C(N)N)nc2ccccc12 | inactive
55 | Cn1c(-c2ccc(F)c(F)c2)cc2onc(-c3ccccc3)c2c1=O | active: 2.31 µM
56 | Cc1ccc(C2=NNC(C(O)C(O)C(O)C(O)CO)S2)cc1 (centres undefined) | inconclusive: 23.1 µM [activator, single point]
57 | CCCn1cnc2cc(NCc3cccs3)ccc21 | inconclusive: 20.6 µM [activator, partial curve, poor fit]
58 | O=C(CCc1nnc(CCCc2ccccc2)o1)NCCc1ccco1 | inconclusive: 20.6 µM [activator, partial curve, poor fit]
59 | COc1ccc2c(c1)C(=O)[C@H](O)[C@@H](c1ccc(OC)c(Br)c1)O2 | inconclusive: 29.1 µM [activator, single point]
60 | COc1cc(-c2nc3ccccc3s2)ccc1O | inconclusive: 18.4 µM [activator, partial curve]
61 | O=S(=O)(Nc1cccc2ccccc12)c1cccs1 | inactive
62 | COc1ccc(NC(=O)CC(C)C)c([N+](=O)[O-])c1 | inactive
63 | Cc1cccc(NC(=O)C(=O)NCC2CCCN2S(=O)(=O)c2cccs2)c1C (centres undefined) | inconclusive: 29.1 µM [activator, partial curve, poor fit]
64 | Cc1ccsc1C(=O)OCc1cc(=O)n2ccsc2n1 | inconclusive: 11.6 µM [activator, partial curve]
65 | COc1ccccc1-n1cnc2sc(C)c(C)c2c1=O | inactive
66 | COc1ccc(CC(=O)O/N=C(\N)c2ccccn2)cc1 | inconclusive: 11.6 µM [activator, partial curve, poor fit]
67 | Cn1cccc1/C=N/NC(=O)c1cc2ccccc2cc1O | inconclusive: 20.6 µM [activator, single point]
68 | COc1ccc(CC(=O)Nc2ccc(-c3ccc4nnc(C)n4n3)cc2)cc1OC | active: 20.6 µM
69 | CCCN1C(=O)C(=O)c2cc(Cl)ccc21 | inconclusive: 14.6 µM [activator, partial curve, poor fit]
70 | O=C(Nc1nccs1)c1ccc(Cl)s1 | inconclusive: 16.4 µM [activator, single point]
71 | COc1ccccc1N=Nc1ccc(O)c2ncccc12 | inconclusive: 23.1 µM [activator, single point]
72 | N#CCC(=O)N/N=C\c1cc(Br)ccc1OC/C=C/c1ccccc1 | inconclusive: 13 µM [activator, partial curve]
73 | CCc1cc(C(=O)O)c(NC(=O)/C=C/c2ccc(OC)cc2)s1 | inconclusive: 20.6 µM [activator, partial curve]
74 | CC(C)(C)NC(=O)C(c1ccc(-c2ccccc2)cc1)N(C[C@H]1CC[C@@H]([C@@H]2CC[C@H](CO)O2)O1)C(=O)c1ccc(-c2ccccc2)cc1 (some centres undefined) | inactive
